Test results taken from the supplement of paper PMC11417369.
The other results are listed elsewhere or left out.

tested on: PfHDP1 homeodomain (GST-tagged); experiment: gcPBM binding intensity (ln(normalized median fluorescence intensity)); higher = stronger DNA binding
Summary of the method: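 An Agilent 4 × 180k array carrying primer-extended double-stranded 36-bp intergenic genomic probes and negative controls received GST-tagged P. falciparum DNA-binding domains expressed in E. coli, about 25 μg on average, for 1 h. The binding buffer contained 1× PBS, 1% milk, 0.2 mg/ml BSA, 0.5% salmon testes DNA and 0.03% Triton X-100. Binding intensity is the top Masliner-normalised natural-log median intensity across replicate spots of either probe orientation, read after Alexa488 anti-GST antibody staining and a 488 nm scan.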

Sequence	gcPBM binding intensity (ln)
CAAAAAAACAAACACACACACACACCCATATATATA [CACACA_site3653]	6.85
TTATTTTTTCAAGAATGTACTTACGAATTGTCGTAT [XGTACX_site1363]	6.1
ATCAATACACATATATGTACATATAATAATTATCTT [XGTACX_site662]	7.86
TAATTACCATATGGTACACACATATATATATGTATA [CACACA_site3487]	7.02
TTTTTTTTTTGTAGTTGTACGAACTAGCTATTTATG [XGTACX_site692]	6.26
TTGGCATACAGACACACACACACACGCCCACATATA [CACACA_site6425]	6.84
ATATATATATATATATGTACATATATATATTTTTTA [XGTACX_site5987]	9.32
TGTTACATATTATAAATACATTAACTATTATATGTA [CACACA_negctrl_site1735]	6.25
TATATATATATATATTGTACATATTGTATATATTGT [XGTACX_site3212]	9.15
TATATATATATTTATACACACATTAGTGTATCCATG [CACACA_site5609]	8.4
TTTATAAAAAATTTTTTTTTTTTTTTTTAAATATAT [CACACA_negctrl_site146]	5.95
TTATATTAAACAAACACACACATATATATATATATA [CACACA_site2382]	9.34
TTAACAAATGGACACACACACACACCCAAAAAAAAA [CACACA_site4443]	6.77
TAAATATAAACACAAACACACACATATATATATATA [CACACA_site7978]	9.27
ATATATTATTATATATGTACTTATTTATAAATGATT [XGTACX_site7597]	6.33
AAATAGGGAATTTATGCACACAGTTAAGGGGGAAAA [CACACA_site2071]	9.1
AATAAATTAATAAGGTGTACATAAATAATTTATATA [XGTACX_site8278]	6.66
ATTTTTTTTTTTTTTTTTTTTTTTTTCTCTCTCACT [CACACA_negctrl_site1046]	6.05
CATACTCTACATAGATGTACTCATTTAAAAAAAAAA [XGTACX_site6945]	6.12
ATTCAAAAGGTTTAATGTACGTGATGTTTCACAAAT [XGTACX_site784]	6.15
AAATATATATATATAATACACACTAAAGTAACATAA [CACACA_site2870]	6.78
ATAGAAGGACATATAACACACATATATTATAAGTAT [CACACA_site5461]	6.49
TGTCGACATGTAGGTAGTACTATTAAAAATAATGAT [XGTACX_site3849]	6.55

Sequence	gcPBM binding intensity (ln)
GGATGATTAAGGGGGACACACGTTTATATATTTATA [CACACA_site4342]	7.45
TTTTTTTTTTATTCTACACACATATGTTTTTATATG [CACACA_site182]	6.67
TATATATATATATGTTGTACTTTTAATTTAAATGTA [XGTACX_site4239]	9.34
TGTTATTAAAACGTGACACACAATATATATATATAT [CACACA_site3539]	9
TTTTTTTTTAAGCAAAGGAAATCAAAATAAAAATAT [CACACA_negctrl_site719]	6.43
TTTTTTTTTTTTTTTTGTACACATAGTAAAAATTAA [XGTACX_site2410]	6.39
TTATAAATTATATATATGACCAATAATTGTGAGCAT [CACACA_negctrl_site725]	7.05
ATTTTCAAATTAAAATGTACAAATGAAAGAAAGGGA [XGTACX_site7048]	6.77
GTGAATCCTAAGTGTACACATCTTACAGATATATAT [CACACA_site4836]	7.51
TGAAATAAAATTTGTACACACATATATATATATATA [CACACA_site586]	9.3
TTCCTTCATTGGAAAAGTACACAATATTGTCGTTTA [XGTACX_site8057]	6.44
ATATAGGTATAATACACACACTAATATGTAACTGTA [CACACA_site7011]	6.58
GCACAAATCATCAAATGTACAGAAAATGCTGTCAAT [XGTACX_site5037]	6.12
TAAATACCTATATGGCGTACTATTATCATAGTATAT [XGTACX_site5423]	6.27
CACGCATACAGACACACACACACACCCATATATATA [CACACA_site636]	7.24
TTAAAAATAAAACAAAGTACTCAAGTTATTGTCTTT [XGTACX_site1584]	6.26
TATGATATGTATGGAAGTACGAAGAGGGATGATCAG [XGTACX_site1677]	7.05
AACTATATATATAATTCACACATGTTTTAAAATTTT [CACACA_site4971]	6.96
CTATGCATTTATAGTGCATGTAAAATATAAGATAAT [TGCATGCA_site71]	9.31
TATAATTAATTAGAAGTGCATTAGGTAACAACTGTC [GTGCAC_site9746]	8.91
TATAAACCTACATACACACATACAATAAGTAAAATG [CACACA_site1921]	6.77
TACTATGCCCCATATAAACACACAAATAAAAAGAAT [CACACA_site8857]	7.43
ATGTATCATAAGAACTGTGTGGTTACAGACACGAAC [GTGCAC_negctrl_site416]	6.56

Sequence	gcPBM binding intensity (ln)
TTTCCTTTTTTAATATGTACACATATTATTATATCT [XGTACX_site3079]	6.83
ATATATTCTTATTGCTGTACACATATTTTCTAAAAA [XGTACX_site4851]	8.2
AACGCAGTTTAATATACACACCAAAAAAAAAAAAAG [CACACA_site5643]	6.42
ACATTCTATACATACACACCCACACCCAAAAAAAAA [CACACA_site863]	7.63
TATATATCAATATACACACACACATATTTATTTATA [CACACA_site6858]	6.97
TAACCACAAAAATAAAATCAAAAAAAAAAAAAAAAA [CACACA_negctrl_site1727]	6.21
AAAAATATAATATAATGTACACATAAACAAAAAAAA [XGTACX_site3658]	6.84
TTTCTTAAATATATGCGTACTCAAAATTGTTCTACA [XGTACX_site7995]	6.19
TAAAATAAAACAAACACACACACACCGACACAAAAA [CACACA_site5993]	6.88
ATATATATATATTTCGCACACATAATCTTATTAAAT [CACACA_site2579]	8.86
AACAGACATACATACACACATACATACAGACATACA [CACACA_site1942]	6.99
AAAATTTCATAAAGACGTACTATAAAAATAAAATTA [XGTACX_site4182]	6.45
GCTATAATAAAATTTAAACACACGTAATATAATATA [CACACA_site2592]	6.65
GAAAAAAAAAAAAATACACACAAATTGGTATATAAC [CACACA_site6315]	6.25
TATAAAAAATATCCTTTTTTTATACATCAATATATA [TGCATGCA_negctrl_site291]	5.81
CACTAATAGTGGATTACACACATATAGATGTATATA [CACACA_site7234]	6.29
AAAAATTCTTGGCGCACACACTTTAAAAGTTAAAAA [CACACA_site6430]	6.98
AATTGTATAAATGGAATAATGACTATGATTATACAT [GTGCAC_negctrl_site188]	6.67
GTATATTTCTTTAAATGTACACATTTTTTTAAAGAG [XGTACX_site1225]	6.32
ATGTAGATATATATCTGTACGTATATGTAAATATTA [XGTACX_site1516]	6.69
AATTCTTTTTATATATTAAATATTATTAATAAGTCA [CACACA_negctrl_site1488]	6.31
ACACATTATAACAAGGTGCAATTTTTATACACATGT [GTGCAC_site9866]	9.12
ACAAAGACAATTTTGTTATATATAAAAAAAAAAAAT [CACACA_negctrl_site253]	6.54

Sequence	gcPBM binding intensity (ln)
CAAATATCTATTTAGTGTACTAATATATTCAATAAT [XGTACX_site2345]	6.31
TATATAAAACCTTATTGTACTATTAGACTATGCTTA [XGTACX_site6026]	6.07
ATAGCATATATTTTTTGTACATATGTTATATATATA [XGTACX_site2184]	7.34
TACAAATATATATGCACACACATATCTGTATATGTG [CACACA_site5663]	9.84
ATTAATTTTCCATTCACACATATATATATATATATA [CACACA_site6065]	9.42
AAGGTCATTTTATATTGTACATGAAATTGTTATGTA [XGTACX_site187]	6.15
ATATACAGATAAATGTGTACTTAAATCTATTATATT [XGTACX_site2632]	6.03
ATATATTTTGTATGTAGTACAATTTTATAATCATAT [XGTACX_site8373]	6.23
TCAATTTGGAACGGTATGCACTAATTTTATATTTTT	8.23
TATTACAAATATGGCACACATATATATATATATATT [CACACA_site3268]	6.67
AATAATGAATACACATGTACAAAAATTTTTCTTACT [XGTACX_site1962]	6.82
TTTTAAAATATCAACACACTCATTATTTTCTATATT [CACACA_site4740]	6.25
AAAATAAAAACAAAATCACACATTCCAGTTTTTTTT [CACACA_site5356]	6.12
TCATTCTATCTGTTCACACATACACAAAAAAAAAAA [CACACA_site5141]	6.67
TATATACATGTGAGAGTGCATATAGACATAAAAAAT	7.99
AAAATAAGCGTGAAACGTACATATTACATTATTATA [XGTACX_site8914]	6.3
TATTAAAAGAAAATAACACACACAAAAAAAAAAAAA [CACACA_site8661]	6.21
ATAATATATATATAGTGTACATTTGAATATATTTGA [XGTACX_site583]	6.68
AAAAAAAACAGACACACACACAAATATATAAAAATA [CACACA_site1172]	6.81
TTTTTGAAATAATGAAACAGCAAAAAAACAAAAATA [CACACA_negctrl_site221]	7.14
